The whole screen tested about 52,000 compounds, of which about 4,300 (8.3%) were called active. Cut-off read from the data, not from the text of the source: active = survival mostly below about 52% (no sharp cut-off); inactive = mostly above about 56%. Some of the results follow.
The compounds below were run on DeltatarO mutant (assay: growth inhibition of S. aureus wild type versus tarO mutant, primary screen, teichoic acid synthesis inhibitors, RN4220, OD600 (AID 463173)). Conditions: OD600, 18 h, active compounds read low, screened at 18.75 µg/mL (by protocol).

| SMILES | survival |
| --- | --- |
| CC(O)c1nc2ccc(Oc3ccc4nc(C(C)O)[nH]c4c3)cc2[nH]1 (centres undefined) | inactive: 94% |
| COc1ccccc1NC(=O)Cn1nnc(C(=O)NCc2ccc3c(c2)OCO3)c1N | inactive: 103% |
| Cn1c(NCCO)nc2c1c(=O)n(Cc1ccccc1Cl)c(=O)n2C | inactive: 74% |
| CCC(C)NC(=O)Cn1c(=O)cc(-c2ccccc2)c2c(C)nn(C)c21 (centres undefined) | inactive: 70% |
| O=C(CSc1nc2c([nH]c3ccccc32)c(=O)n1-c1ccc(F)cc1)N1CCCCC1 | inactive: 92% |
| CCc1ccc(OCC(=O)N(Cc2ccc(Cl)cc2)C2CCS(=O)(=O)C2)cc1 (centres undefined) | active: 57% |
| Cc1noc(C)c1S(=O)(=O)N1CCC(C(=O)N2CCN(c3ccccc3)CC2)CC1 | inactive: 129% |
| CCOC(=O)c1oc2c(c1C)-c1nn(Cc3ccc(Cl)cc3)cc1CC2 | active: 16% |
| CC(=O)Oc1c(O)ccc2c(C)cc(=O)oc12 | inactive: 57% |
| C/C(=N\NC(=O)c1cc2ccccc2cc1O)c1ccc(N)cc1 | inactive: 70% |
| CCOC(=O)Cc1ccc(NC(=O)NCc2ccc3c(c2)CCN3C(=O)CC)cc1 | inactive: 71% |
| O=C(CCS(=O)(=O)c1cc(Br)cc2c1N(C(=O)C1CC1)CC2)Nc1ccc(Br)cc1F | inactive: 98% |
| O=S(=O)(c1ccc2c(c1)OCCO2)N1CCN(c2ncccn2)CC1 | inactive: 94% |
| COc1ccccc1C(=O)Nc1cc2c(cc1N1CCOCC1)n(C)c(=O)n2C | inactive: 136% |
| COc1cc2[nH]c(=O)n(CCCCCC(=O)N3CCN(c4cccc(C(F)(F)F)c4)CC3)c(=O)c2cc1OC | inactive: 83% |
| COc1cccc(Oc2nc3c(c(=O)n(Cc4ccccc4F)c(=O)n3C)n2C)c1 | inactive: 74% |
| CC(C)OC(=O)C1=C(N)OC2=C(C(=O)CCC2)C1c1ccccc1F (centres undefined) | inactive: 73% |
| Cc1cccc(NS(=O)(=O)c2ccc3oc(=O)c4ncn(C)c4c3c2)c1C | inactive: 109% |
| COc1cccc(N2CCN(C(=O)c3c(C)oc4ncnc(N5CCOCC5)c34)CC2)c1 | inactive: 89% |
| Cc1c(C(=O)N(C)C)sc2c1c(=O)n(-c1ccc(Cl)c(Cl)c1)c(=O)n2CC(=O)Nc1cccc(C(F)(F)F)c1 | active: 46% |
| CC(C)c1ccc(NC(=O)CN(C)S(=O)(=O)c2ccc3c(c2)c(=O)n(C)c(=O)n3C)cc1 | inactive: 81% |
| CCn1c(=O)n(CC)c2cc(N3CCCCC3)c(NC(=O)Nc3ccccc3Cl)cc21 | inactive: 95% |
| COc1ccc2c(CNCCc3cccs3)c(C(=O)O)n(Cc3ccccc3)c2c1 | inactive: 75% |
| O=C(CCCN1C(=O)C(c2ccccc2)Oc2cccnc21)Nc1ccc(Br)cc1F (centres undefined) | inactive: 82% |

From PubChem BioAssay AID463173 (ICCB-Longwood Screening Facility, Harvard Medical School, 2010)
